# Experimental data as given in PubChem BioAssay AID434955 (Southern Research Specialized Biocontainment Screening …, 2010).
# The list shows a part of the results. The main result of the screen is listed elsewhere. These columns were measured beside it and carry no call. Most of these compounds were active or inconclusive in the main read-out, so they are no random draw.
# Assay: beta-lactam sensitization of Mtb H37Rv, H37Rv (AID 434955);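 also: growth measured after seven days incubation then overnight dye step; 0% = bacteria only wells and 100% = bacteria with antibiotic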
# Details: M. tuberculosis H37Rv growth with meropenem, percent inhibition; measured here: primary screen without meropenem; at 25 µM
row,Structure (SMILES),inhibition [%]
1,COc1cc(-c2ccc3sc(-c4ccsc4)c(C#CCO)c3c2)cc(OC)c1OC,92
2,CC(C)(Cc1ccccc1)NC(=O)C(=O)c1cn(CC(=O)N2CCOCC2)c2ccccc12,4.2
3,Cc1ccc(SCC(=O)NC2CC2)cc1,0.27
4,CCN(CC)CCCNC(=O)c1cn(C)c2ccc(S(=O)(=O)N(C)C)cc2c1=O,-5.54
5,CSc1ncccc1C(=O)Nc1nc2ccc(Oc3ccccc3)cc2s1,37.5
6,COc1ccc(N2C(=O)NC(=O)/C(=C/c3cccc(OC(=O)c4cccs4)c3)C2=O)cc1Cl,9.67
7,COc1ccc(Oc2cc(NC(=O)c3nn(C)cc3[N+](=O)[O-])cc([N+](=O)[O-])c2)cc1,6.62
8,O=C(CSc1ccc2nnc(-c3cccnc3)n2n1)Nc1cccc(F)c1,-0.9
9,CCC1CCCCN1CCCNC(=O)CC1Oc2ccc(C)cc2NC1=O (stereo not given),-6.87
10,Cc1ccc(Cl)cc1N1CCN(C(=O)C2CCC(=O)N(C3CCCCCC3)C2)CC1 (stereo not given),98.3
11,COCCNC(C(=O)Nc1ccc(C)cc1[N+](=O)[O-])c1ccccc1 (stereo not given),8.78
12,Cc1cc2n(n1)SC(Nc1ccc(F)c(Cl)c1)N2 (stereo not given),-14.2
13,COc1cc(NC(=O)c2cccc(Cl)c2)c(OC)cc1NC(=O)CN1CCCCC1,-1.94
14,CCc1ccc(NC(=O)c2c(Cl)nc(C)c(Cl)c2C)cc1,6.49
15,COc1cccc(-c2cc(C(=O)N3CC4(C)CC3CC(C)(C)C4)no2)c1 (stereo not given),79.9
16,Cc1ccc(OCCN(C)C(=O)c2cc(COc3ccc(F)cc3F)on2)cc1,11.7
17,Cc1nn(Cc2ccc(C(=O)N3CCN(C(=O)c4ccco4)CC3)o2)c(C)c1[N+](=O)[O-],3.29
18,Cc1cccn2c(=O)c3c(nc12)N1CCc2ccccc2C1C1(C3)C(=O)NC(=O)N(C)C1=O (stereo not given),10.1
19,Cc1cccc(C)c1NC(=O)C1CC2CCC1C2 (stereo not given),14.5
20,Cc1ccc(/C=N/n2c(COc3ccccc3)n[nH]c2=S)cc1,6.13
21,COC(=O)c1ccc(Cn2nc(-c3ccccc3)ccc2=O)cc1,2.25
22,Cc1ccc(C(=O)COC(=O)CNS(=O)(=O)c2ccc(C)cc2)cc1,-1.19
23,Cc1ccccc1Nc1nc(N)nc(COC(=O)c2cccc(S(=O)(=O)N(C)C)c2)n1,-3.15
24,CCOC(=O)c1sc(Nc2nc3c(OC)cccc3s2)cc1C,48.9
25,CCN(CC)c1ccc2cc(-c3nc4ccccc4n3C)c(=O)oc2c1,80.1
26,Cc1[nH]n(-c2ccccc2)c(=O)c1S(=O)(=O)c1ccccc1,6.77
27,COc1ccc(OC)c(N(CC(=O)NC2CCCC2)S(=O)(=O)c2ccc(OC)c(OC)c2)c1,8.58

row,Structure (SMILES),inhibition [%]
1,COc1cc(C(=O)Oc2cccnc2)cc(OC)c1OC,17.3
2,O=C(c1ccco1)n1nc(-c2ccccc2)nc1NCc1ccco1,1.72
3,COc1cccc2c1OC1(C)CC2/C(=C(\C)O)C(=O)N1 (stereo not given),3.87
4,CCCCn1c(N)c(N(CCC(C)C)C(=O)CCCc2nc3ccccc3s2)c(=O)[nH]c1=O,2.15
5,Cc1ccc(NC(=O)CS(=O)CC(=O)Nc2cccc(C)c2C)cc1F (stereo not given),-10.4
6,Cc1cc(NC(=O)c2cccc(S(=O)(=O)N3CCC(C)CC3)c2)no1,-2
7,COc1cccc(S(=O)(=O)Nc2cccnc2)c1,-3.73
8,O=C(CCn1c(=O)oc2ccccc21)N1CCN(c2ccccc2F)CC1,-5.79
9,CCn1nc(NC(=O)CC(C)C)c2cc3cccc(C)c3nc21,1.41
10,COc1ccc(-c2noc(CSc3nc4ccccc4c(=O)n3-c3ccccc3)n2)cc1,-0.62
11,O=C(CSc1nnc(CNC(=O)c2ccccc2)o1)NCc1ccccc1,-1.83
12,Cc1ccc(S(=O)(=O)N2CCC(N3CCC(C)CC3)CC2)cc1,-1.46
13,CC(C)c1nc2cc(C(=O)N(C)C3CCOCC3)ccc2o1,4.09
14,CC(=O)Nc1nonc1NC(=O)CSc1ncn[nH]1,-9.49
15,CCCC(=O)N(CCN1CCOCC1)c1nc2c(OC)ccc(C)c2s1,1.9
16,COc1ccc(CN2CCN(C(=O)Cn3ncn4cccc4c3=O)CC2)c(OC)c1OC,-7.18
17,COC(=O)CCC(=O)NNC(=O)c1cccc(Cl)c1,-1.68
18,O=C(NCCCNC(=O)NC1CCCCC1)NC1CCCCC1,-5.15
19,COc1ccc(-c2cc3c(=O)n(CC(=O)NCCCN4CCC(Cc5ccccc5)CC4)ncn3n2)cc1,90.3
20,CCc1c(C)nc(SCc2cccnc2)[nH]c1=O,1.43
21,COc1ccc(C)cc1NC(=O)c1nnn(Cc2cccc(F)c2)c1N,-9.93
22,O=C(c1ccccc1)N1CCC(CC2CC(c3cccc(Br)c3)=NO2)(C(=O)NCC2CCCCC2)CC1 (stereo not given),16.1
23,CN(C)c1ccc(/C=C/c2nc3ccccc3s2)cc1,42.9
24,Cc1cccc(NS(=O)(=O)c2cc3c(cc2C)n(C)c(=O)c(=O)n3C)c1,-6.75
25,COc1ccc(OC)c(-c2cc(C(=O)Nc3c(C)n(C)n(-c4ccccc4)c3=O)no2)c1,18.7
26,CCn1c(CNc2ccccc2Cl)nnc1SCCN1CCCCC1,-1.58
27,O=C(O)CSc1ncnc2c1sc1nc(-c3ccccc3)c3c(c12)CCC3,-1.37

row,Structure (SMILES),inhibition [%]
1,CN(C)CCCNc1oc(-c2ccccc2Cl)nc1S(=O)(=O)c1ccc(F)cc1,-1.96
2,CCCN1CCN(C(=O)c2cc3c(s2)-c2ccccc2OC3)CC1,2.21
3,CCC(CC)Nc1ccc(C(CC(N)=O)NC(=O)c2ccccc2)cc1[N+](=O)[O-] (stereo not given),27.1
4,Cn1c(SCC(=O)c2ccccc2)nnc1-c1cnccn1,1.54
5,CCN(CC)c1ccc(N=Cc2c(O)n(-c3ccc(Cl)cc3)c(=O)[nH]c2=O)cc1,4.12
6,S=C(NCCc1ccccc1)Nc1ccc(N2CCCCC2)cc1,2.7
7,COC(=O)c1c(NC(=O)COc2ccc(Cl)cc2)sc2c1CC(C)(C)NC2(C)C,100
8,O=[N+]([O-])c1ccc(-c2nnc3n2CCCCC3)cc1,-8.52
9,COc1cc(C(=O)NCCC(=O)NCCCN2CCCCC2)cc(OC)c1OC,-0.97
10,Cc1nnc(SCc2ccc(C(=O)Nc3cc(Cl)ccc3C)cc2)s1,-1.77
11,COc1ccc(NC2CCCN(C(=O)c3ccc(C)c(N4CCNC4=O)c3)C2)cc1 (stereo not given),2.82
12,Cc1c(CCC(=O)O)c(=O)oc2cc3occ(-c4ccc(F)cc4)c3cc12,8.3
13,CCCc1c(C(=O)N/N=C(/C)c2ccncc2)nnn1-c1nonc1N,5
14,CSc1nc(C)c(C(=O)Nc2ccccc2)c(-c2ccco2)c1C#N,53.6
15,O=C(NC1CCCCC1)n1c(=O)oc2ccc(Cl)cc21,2.99
16,Cc1ccn(CCC(=O)Nc2ccc3c(c2)OCO3)n1,0.23
17,COc1ccccc1-n1c(SCC(=O)Nc2ccc(NC(C)=O)cc2)nc2c([nH]c3ccccc32)c1=O,7.07
18,COc1ccc(-c2csc(N3CCN(Cc4ccc5c(c4)OCO5)CC3)n2)cc1,0.46
19,CC(C)CCn1c(=O)c(C(=O)NCc2ccc3c(c2)OCO3)c(O)c2ccccc21,3.69
20,CCc1ccc(CN2CCC(C(=O)Nc3cccc(-c4nnc(C)s4)c3)CC2)o1,2.81
21,COC(=O)c1ccccc1NC(=O)CCC(=O)N1CCSc2ccccc21,0.04
22,COC(=O)c1ccc(CN2CCCC(C(=O)Nc3ccc(-c4ccn[nH]4)cc3)C2)cc1 (stereo not given),5.14
23,Cc1c(NC(=O)COc2ccc(C(C)C)cc2)c(=O)n(-c2ccccc2)n1C,-1.3
24,CCOc1cccc2cc(C(=O)Nc3cc(C)on3)c(=O)oc12,3.23
25,Cc1ccc(C)c(NC(=O)CSc2nnc([C@@H](N)Cc3c[nH]c4ccccc34)o2)c1,-1.47
26,COc1ccc(/C=N/Nc2nc(-c3ccc(C)cc3)c(NC(C)=O)s2)cc1OC,38
27,CCOc1cc(/C=C2\N=C(SC(C)C(N)=O)N(c3ccc(OC(F)F)cc3)C2=O)ccc1O (stereo not given),98.1

row,Structure (SMILES),inhibition [%]
1,Cc1cc(F)ccc1NCC(=O)Nc1ccc(Br)cc1C,29.6
2,O=C(Nc1nc2ccccc2n1CCN1CCCC1)C1CCCCC1,2.94
3,Cc1ccc(S(=O)(=O)N(CC(=O)N2CCOCC2)c2ccc(C(C)C)cc2)cc1,-0.39
4,Cc1cccc(OCCC(=O)NCC(c2ccccc2)N(C)C)c1 (stereo not given),-0.47
5,CC(=O)Nc1scc(C)c1-c1nc2ccccc2s1,26
6,COc1cc2nc(N3CCN(C(=O)OCc4ccccc4)[C@H](C(=O)NC(C)(C)C)C3)nc(N)c2cc1OC,56.7
7,O=C(CN1CCN(c2cccc(Cl)c2)CC1)Nc1ccc(S(=O)(=O)N2CCOCC2)cc1,8.13
8,COc1ccc(NC(=O)CCl)cn1,55.6
9,CC(C)c1ccc(NC(=O)c2ccc3c(c2)C(=O)N(Cc2cccnc2)C3=O)cc1,-10.1
10,O=C(NCCN1CCN(C(=O)c2ccc([N+](=O)[O-])cc2)CC1)C(=O)Nc1ccc(F)cc1,-0.11
11,FC(F)(F)c1ccc2c(c1)ncn2C1CCN(Cc2nnnn2C2CCCCC2)CC1,59.8
12,O=S(=O)(NC(=NC1CCCCC1)c1ccccc1)c1ccc(F)cc1,5.49
13,Nc1ccnn1Cc1cccs1,2.53
14,CC(OC(=O)c1oc2ccccc2c1CSC1CCCCC1)C(=O)NC(N)=O (stereo not given),-14.8
15,CCN(C1CCCCC1)S(=O)(=O)c1ccc(C(=O)O)cc1,-3.71
16,Cc1c(C(=O)NC2CCC(C)CC2)oc2ccccc12 (stereo not given),4.74
17,Cn1c(=O)c2ccccc2n2c(CCl)nnc12,26.5
18,CCOc1ccc(S(=O)(=O)NCCC(=O)NCC2(N3CCCCC3)CCCCC2)cc1,-6.67
19,O=C(CC1C(=O)NCCN1Cc1ccccc1C(F)(F)F)NC1CCC1 (stereo not given),4.41
20,Cn1c(O)c(C2=c3ccccc3=NC2=O)[nH]c1=S,37
21,Cc1nn(CCc2nn[nH]n2)c2nc(-c3ccc(C4CCCCC4)cc3)cc(C(F)(F)F)c12,21.8
22,O=C1Nc2ccccc2Nc2ccc([N+](=O)[O-])cc21,2.63
23,O=S1(=O)CCO[C@H]2Cc3ccccc3[C@H]2N1Cc1ccc(Cl)cc1,24.6
24,C=CCn1c(SCC(=O)NCC2CCCO2)nc2scc(-c3ccc(OC)cc3)c2c1=O (stereo not given),-1.7
